From PubChem BioAssay AID1460 (National Center for Advancing Translational Sciences (NCATS), 2008)
Among all 270,000 compounds or so, about 5,800 (2.1%) were called active. The shares of active, inactive and inconclusive entries below differ from those in the screen. The call rests on the fitted dose curve; in most records, active means well fitted inhibition curve with a large enough effect; inconclusive means small, poorly fitted or top-dose-only effect; inactive means flat fitted curve, though single readings scatter. Potencies beside an inconclusive call are fits to weak or partial responses and may not hold up.

What follows are compounds tested against Microtubule-associated protein tau (Homo sapiens) (UniProt P10636) (assay: qHTS for Inhibitors of Tau Fibril Formation, Thioflavin T Binding). Settings: recombinant tau K18 P301L (four-repeat tau fragment), heparin-induced fibrillization, ThT fluorescence; series mostly up to 57.4 µM.
How it was run: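 Aggregation was driven by heparin (20 uM final) acting on recombinant tau […] bearing P301L in 100 mM sodium acetate pH 7; fibrils were detected with Thioflavin T.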
Further: nearly all actives have a fitted effect of over 55% in size.
Potency means the concentration at half of the fitted maximal effect; tags describe the fitted curve by direction and shape.

Chain of UniProt P10636 (P10636 whole entry, looked up, the tested form may be a part): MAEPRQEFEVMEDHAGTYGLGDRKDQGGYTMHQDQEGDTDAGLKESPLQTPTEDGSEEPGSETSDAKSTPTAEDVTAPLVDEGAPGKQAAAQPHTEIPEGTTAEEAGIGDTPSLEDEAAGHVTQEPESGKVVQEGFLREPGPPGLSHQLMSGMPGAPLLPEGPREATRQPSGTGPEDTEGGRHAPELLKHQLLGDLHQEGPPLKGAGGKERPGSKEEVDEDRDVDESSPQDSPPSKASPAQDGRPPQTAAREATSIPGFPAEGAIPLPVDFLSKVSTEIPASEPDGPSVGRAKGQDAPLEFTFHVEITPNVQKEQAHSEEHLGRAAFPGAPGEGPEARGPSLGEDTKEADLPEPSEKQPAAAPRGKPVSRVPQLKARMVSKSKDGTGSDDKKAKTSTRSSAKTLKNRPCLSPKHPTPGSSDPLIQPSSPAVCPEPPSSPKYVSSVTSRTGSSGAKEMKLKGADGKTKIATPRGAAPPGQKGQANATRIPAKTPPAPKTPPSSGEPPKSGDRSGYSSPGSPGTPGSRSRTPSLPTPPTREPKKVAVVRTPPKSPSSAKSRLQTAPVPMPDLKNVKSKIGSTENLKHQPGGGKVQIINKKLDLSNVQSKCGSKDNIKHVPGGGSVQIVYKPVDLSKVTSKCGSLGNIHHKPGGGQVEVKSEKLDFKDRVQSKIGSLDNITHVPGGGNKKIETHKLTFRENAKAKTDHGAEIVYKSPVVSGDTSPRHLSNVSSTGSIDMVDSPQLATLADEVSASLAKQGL

Q: How did the Potency turn out when `O=c1c(N2CCCCC2)csc2ccc(F)cc12` was run?
A: Its Potency is inconclusive: 11.2 µM [inhibitor, partial curve, poor fit].

Q: How did the Potency turn out when `O=C(Nc1ccc(F)cc1)Nc1ccc2snnc2c1` was run?
A: Its Potency is inconclusive: 15.8 µM [activator, partial curve].

Q: How did the Potency turn out when `O=C(NCc1cccnc1)/C(=C\c1ccc(-c2ccc(Br)cc2)o1)S(=O)(=O)c1ccccc1` was run?
A: The Potency was inconclusive: 8.91 µM [inhibitor, full curve].

Q: For `CCCNC(=O)CNC(=S)N(Cc1ccccc1F)C1CCCCC1`, which Potency is on record?
A: The Potency was “inactive”.

Q: With `Cc1cc(C)cc(Nc2c3c(nc4ncnn24)CCC3)c1` as the compound, how does the Potency read?
A: Its Potency is “inactive”.

Q: With `Cc1cccc(NC(=O)C2C(C(=O)O)C3C=CC2C32CC2)c1C` (stereo not given) as the compound, how does the Potency read?
A: The Potency was “inactive”.

Q: For `O=C(NC1CC(=O)N(c2ccccc2)C1)c1ccco1` (stereo not given), which Potency is on record?
A: Its Potency is “inactive”.

Q: With `CCOC(=O)CSc1nnc(-c2ccccc2)o1` as the compound, how does the Potency read?
A: Its Potency is “inactive”.

Q: For `COc1ccc(Cl)cc1C1CC(=O)Nc2cc3c(cc21)OCCO3` (stereo not given), which Potency is on record?
A: The Potency was “inactive”.

Q: `Cc1c(/C=N\NC(=O)c2cc3ccccc3o2)c2ccccc2n1C` was tested. Which Potency did it give?
A: Its Potency is active: 3.55 µM.

Q: With `CC(=O)Nc1ccc(S(=O)(=O)N2CCN(c3cc(C)nc4ccccc34)CC2)cc1` as the compound, how does the Potency read?
A: Its Potency is “inactive”.

Q: With `CCCCn1nnc(NC(=O)c2ccc(-c3cccc([N+](=O)[O-])c3)o2)n1` as the compound, how does the Potency read?
A: The Potency was inconclusive: 12.6 µM [inhibitor, partial curve].

Q: Which Potency does the source give for `CCCOc1ccc(NC(=O)CC2C(=O)N(c3ccc(C)cc3)C(=O)N2C2CCCC2)cc1` (stereo not given) here?
A: Its Potency is “inactive”.

Q: `CCSc1ncc(Cl)c(C(=O)N(Cc2ccccc2)Cc2ccco2)n1` was tested. Which Potency did it give?
A: Its Potency is inconclusive: 14.1 µM [inhibitor, single point].

Q: `CCOC(=O)c1nnn(-c2nc(OC)nc(N3CCCC3)n2)c1-c1ccccc1` was tested. Which Potency did it give?
A: Its Potency is inconclusive: 0.0251 µM [inhibitor, full curve, poor fit].

Q: With `COc1ccc(N2Nc3n[nH]c(N)c3N2)cc1` as the compound, how does the Potency read?
A: Its Potency is active: 8.91 µM.

Q: With `CS(=O)(=O)Nc1ccc(C2=NN(S(C)(=O)=O)C(c3cccs3)C2)cc1` (stereo not given) as the compound, how does the Potency read?
A: The Potency was inconclusive: 17.8 µM [inhibitor, partial curve].

Q: Which Potency does the source give for `N#Cc1nc(-c2ccc(F)cc2)oc1N1CCCC1` here?
A: The Potency was “inactive”.

Q: `Cc1cc(/C=N/NC(=O)COc2cccc3cccnc23)c(C)n1-c1ccc(O)cc1` was tested. Which Potency did it give?
A: Its Potency is inconclusive: 20 µM [inhibitor, partial curve].

Q: With `COc1ccc(OC)c(NC(=O)c2cnc(N3CCCC3)nc2C)c1` as the compound, how does the Potency read?
A: The Potency was inconclusive: 3.16 µM [inhibitor, partial curve].

Q: Which Potency does the source give for `Cc1ccc(Nc2nc3ccccc3[nH]2)nc1` here?
A: Its Potency is “inactive”.

Q: With `CC(=O)c1cccc(NC(=O)CCS(=O)(=O)c2cccc3nsnc23)c1` as the compound, how does the Potency read?
A: Its Potency is inconclusive: 22.4 µM [inhibitor, partial curve].

Q: With `O=C(N/N=C/c1cc(Cl)cc([N+](=O)[O-])c1O)c1ccccc1NS(=O)(=O)c1cccs1` as the compound, how does the Potency read?
A: Its Potency is active: 11.2 µM.

Q: Which Potency does the source give for `CC(=O)Nc1ccc(NS(=O)(=O)c2ccc(Cl)s2)cc1` here?
A: The Potency was inconclusive: 14.1 µM [inhibitor, partial curve].

Q: With `Cc1nn(-c2ccc(F)cc2)c(-n2cccc2)c1C(=O)N1CCN(c2ccccc2F)CC1` as the compound, how does the Potency read?
A: The Potency was inconclusive: 39.8 µM [inhibitor, single point].

Q: `O=C(CN1CCN(Cc2ccccc2)CC1)N/N=C\C=C/c1ccco1` was tested. Which Potency did it give?
A: Its Potency is inconclusive: 17.8 µM [inhibitor, single point].

Q: Which Potency does the source give for `C/C(CC(=O)Nc1ccc(Cl)cc1Cl)=N\NC(=O)C(=O)N1CCCC1` here?
A: The Potency was inconclusive: 14.1 µM [inhibitor, partial curve].

Q: Which Potency does the source give for `COc1ccccc1N1C(=O)CC(Sc2n[nH]c(-c3cccc(C)c3)n2)C1=O` (stereo not given) here?
A: Its Potency is inconclusive: 11.2 µM [inhibitor, partial curve].

Q: With `Cc1ccc(/C=C/C(=O)O)cc1S(=O)(=O)NCc1ccco1` as the compound, how does the Potency read?
A: The Potency was “inactive”.

Q: For `CCCn1nc(NC(=O)c2cccs2)c2cc3ccccc3nc21`, which Potency is on record?
A: The Potency was inconclusive: 39.8 µM [inhibitor, partial curve].

Q: How did the Potency turn out when `Nc1ccc(-c2nc3nc(N)nc(N)c3nc2-c2ccc(N)cc2)cc1` was run?
A: Its Potency is inconclusive: 25.1 µM [inhibitor, partial curve].

Q: For `CC1(C)CC(=O)C2=C(C1)NC1=C(C(=O)c3ccccc31)C2c1ccc(O)cc1` (stereo not given), which Potency is on record?
A: Its Potency is active: 17.8 µM.

Q: Which Potency does the source give for `Cc1c(C)n(C)c2ccc(C(=O)NCCc3ccc(Cl)cc3)cc12` here?
A: The Potency was inconclusive: 7.08 µM [inhibitor, partial curve].

Q: For `CCOc1ccc2nc(NC(=O)CS(=O)(=O)c3ccc(C)cc3)sc2c1`, which Potency is on record?
A: Its Potency is inconclusive: 6.31 µM [inhibitor, partial curve].

Q: How did the Potency turn out when `COc1ccc(NC(=S)Nc2cccc(C(C)=O)c2)cc1OC` was run?
A: Its Potency is inconclusive: 25.1 µM [inhibitor, single point].

Q: Which Potency does the source give for `CSCC[C@@H]1NC(=O)C/C=C\[C@@H](C)COC(=O)[C@@H](CCSC)NC(=O)C/C=C\[C@@H](C)COC1=O` here?
A: Its Potency is inconclusive: 0.0316 µM [inhibitor, full curve, poor fit].

Q: With `CCCC1CCC(C2=N/C(=C\c3ccc(OC)c(OC)c3)C(=O)O2)CC1` (stereo not given) as the compound, how does the Potency read?
A: Its Potency is inconclusive: 28.2 µM [inhibitor, partial curve].

Q: Which Potency does the source give for `O=C(c1ccc2c3c(cccc13)CC2)C1CCCN(Cc2ccccn2)C1` (stereo not given) here?
A: Its Potency is inconclusive: 25.1 µM [inhibitor, partial curve, poor fit].

Q: With `CCOC(=O)C1CCCN(S(=O)(=O)c2cc3c(cc2C)NC(=O)CO3)C1` (stereo not given) as the compound, how does the Potency read?
A: Its Potency is “inactive”.

Q: For `Cn1c(O)c(C2=c3ccccc3=NC2=O)[nH]c1=S`, which Potency is on record?
A: Its Potency is inconclusive: 1.41 µM [inhibitor, full curve].

Q: How did the Potency turn out when `CCSc1nnc2c(n1)OC(c1sccc1C)N(C(C)=O)c1ccccc1-2` (stereo not given) was run?
A: The Potency was inconclusive: 0.891 µM [inhibitor, single point].

Q: Which Potency does the source give for `Cc1c(C(=O)O)cccc1-n1c(C)cc(/C=N/NC(=O)c2cc3ccccc3o2)c1C` here?
A: Its Potency is inconclusive: 20 µM [inhibitor, partial curve, poor fit].

Q: How did the Potency turn out when `O=C(N/N=C1\C/C(=N\NC(=O)c2ccncc2)c2ccccc21)c1ccncc1` was run?
A: Its Potency is active: 10 µM.

Q: `O=C(CSc1nc2c([nH]c3ccccc32)c(=O)n1-c1ccc(F)cc1)NCc1ccco1` was tested. Which Potency did it give?
A: Its Potency is inconclusive: 39.8 µM [inhibitor, single point].

Q: `COC(=O)[C@@]1(Cc2ccc(OC)cc2)[C@H]2c3cc(C(=O)N4CCCC4)n(CCc4ccc(O)c(O)c4)c3C[C@H]2CN1C(=O)c1ccccc1` was tested. Which Potency did it give?
A: Its Potency is inconclusive: 35.5 µM [inhibitor, single point].
